{
  "source": "PubChem BioAssay AID2101",
  "about": "(National Center for Advancing Translational Sciences (NCATS), 2009)",
  "note": "Where “and” joins values, the source holds several entries; their conditions need not be identical. Equal entries are not always repeated. Among all 330,000 compounds or so, about 300 (0.091%) were called active. About 4% were inconclusive and are not listed. Calls follow the shape of the dose curve; as a rule, active = well fitted inhibition curve with a large enough effect; inconclusive = small, poorly fitted or top-dose-only effect, or effect the other way, or another doubt; inactive = no such curve, though single readings can be large or run the other way. The entries are a selection whose mix differs from that of the whole data set. Potency is read from the fitted curve at half-maximal effect.",
  "data": [
    {"target": "Lysosomal acid glucosylceramidase (Homo sapiens) (UniProt P04062)", "assay": "qHTS Assay for Inhibitors and Activators of N370S glucocerebrosidase as a Potential Chaperone Treatment of Gaucher Disease;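 as to activity change, negative = inhibition: 0% = full enzyme activity and -100% = no enzyme basal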", "conditions": "N370S GC spleen homogenate, 4MU-glucoside fluorescence; series mostly up to 59.4 µM; activity change, negative = inhibition: at the top concentration", "values": [
      {"smiles": "O=c1c(O[C@@H]2O[C@H](CO)[C@@H](O)[C@H](O)[C@H]2O)c(-c2ccc(O)c(O)c2)oc2cc(O)cc(O)c12", "activity change, negative = inhibition": "inactive: -15%"},
      {"smiles": "COC(=O)[C@@H]1C[C@H]2CC[C@H](O)C[C@H]2N1Cc1ccc(Cl)cc1", "Potency": "inactive"},
      {"smiles": "O=C(c1ccc(Br)o1)N(Cc1ccccc1)Cc1ccccc1", "activity change, negative = inhibition": "inactive: 1.79% [at 89.1 µM]"},
      {"smiles": "COc1cccc(Nc2nc(-c3cccs3)nc3ccccc23)c1", "Potency": "active: 12.6 µM"},
      {"smiles": "OC(COC(c1ccc(Cl)cc1)c1ccc(Cl)cc1)CN1CCc2ccccc2C1", "note": "(centres undefined)", "Potency": "active: 7.94 µM"},
      {"smiles": "CCC[C@@H]1O[C@@H]2C[C@@H]3[C@H]4CCC5=CC(=O)C=C[C@@]5(C)[C@H]4[C@H](O)C[C@@]3(C)[C@@]2(C(=O)CO)O1", "activity change, negative = inhibition": "inactive: -2.44% [at 21.6 µM]"},
      {"smiles": "C[C@H]1O[C@@H](n2cc(F)c(=O)[nH]c2=O)[C@H](O)[C@@H]1O", "activity change, negative = inhibition": "inactive: 2.82%"},
      {"smiles": "COc1cc(CNCCc2c[nH]c3ccccc23)ccc1OCc1ccc(F)cc1", "Potency": "active: 15.8 µM"},
      {"smiles": "C[C@H](CO)NC(=O)[C@H](C)[C@@H]1C[C@@]1(C)[C@@H](NC(=O)OCc1ccccc1)c1ccccc1", "Potency": "inactive"},
      {"smiles": "OC(c1cc(C(F)(F)F)nc2c(C(F)(F)F)cccc12)C1CCCCN1", "note": "(centres undefined)", "activity change, negative = inhibition": "inactive: -17.5%"},
      {"smiles": "COc1c(O)cc2oc(-c3ccc(O)cc3)cc(=O)c2c1O", "activity change, negative = inhibition": "inactive: -15.6%"},
      {"smiles": "CNCCCC12CCC(c3ccccc31)c1ccccc12", "Potency": "inactive"},
      {"smiles": "CC1OC(n2cc(F)c(=O)[nH]c2=O)C(O)C1O", "note": "(centres undefined)", "activity change, negative = inhibition": "inactive: 0.197%"},
      {"smiles": "CCCCN(CCCC)CCC(O)c1cc2c(Cl)cc(Cl)cc2c2cc(C(F)(F)F)ccc12", "note": "(centres undefined)", "activity change, negative = inhibition": "inactive: -7.36% [at 21.6 µM]"},
      {"smiles": "NC(N)=N/N=C/c1ccc(OCc2ccccc2)c(OCc2ccccc2)c1", "Potency": "active: 11.2 µM"},
      {"smiles": "CN1[C@@H]2CC[C@H]1CC(OC(=O)c1c[nH]c3ccccc13)C2", "note": "(some centres undefined)", "activity change, negative = inhibition": "inactive: -6.83%"},
      {"smiles": "c1csc(CNc2nc(-c3cccs3)nc3ccccc23)c1", "Potency": "active: 17.8 µM"},
      {"smiles": "O=C1CN(/N=C/c2ccc(-c3ccc([N+](=O)[O-])cc3)o2)C(=O)N1", "activity change, negative = inhibition": "inactive: -6.76%"},
      {"smiles": "C[C@@H](CN1c2ccccc2Sc2ccccc21)N(C)C", "activity change, negative = inhibition": "inactive: -2.22% [at 21.6 µM]"},
      {"smiles": "CC1(C)S[C@@H]2[C@H](NC(=O)[C@H](C(=O)O)c3ccsc3)C(=O)N2[C@H]1C(=O)O", "activity change, negative = inhibition": "inactive: -1.61% [at 21.6 µM]"},
      {"smiles": "c1cncc(-c2nc(NCc3cccs3)c3ccccc3n2)c1", "activity change, negative = inhibition": "inactive: -24.1%"},
      {"smiles": "c1ccc(C2[C@H]3CN(Cc4cccnc4)[C@H](c4ccccc4)C34CC2(c2cccnc2)C4)cc1", "note": "(some centres undefined)", "activity change, negative = inhibition": "inactive: -13%"},
      {"smiles": "NC(=NCCCCCCN=C(N)/N=C(\\N)Nc1ccc(Cl)cc1)/N=C(\\N)Nc1ccc(Cl)cc1", "Potency": "active: 1.58 µM and active: 6.31 µM"},
      {"smiles": "O=C1c2ccccc2C(=O)C1c1ccc2ccccc2n1", "activity change, negative = inhibition": "inactive: 0.192%"},
      {"smiles": "CC(C)C[C@H](NC(=O)c1[nH]cnc1C(=O)N[C@@H](C)c1ccccc1)C(=O)OC(C)(C)C", "activity change, negative = inhibition": "inactive: 16.7%"},
      {"smiles": "OC(COc1cccc2ccccc12)CN1CCN(c2ccc(Cl)cc2)CC1", "note": "(centres undefined)", "activity change, negative = inhibition": "inactive: -0.0516%"},
      {"smiles": "O=C(NCCN1CCOCC1)c1ccc2c(c1)N(Cc1ccccc1F)C(=O)c1ccccc1S2", "Potency": "active: 10 µM"},
      {"smiles": "Cc1ccc(CN2CCN(/N=C\\C(Br)=C\\c3ccccc3)CC2)cc1", "activity change, negative = inhibition": "inactive: -21.2%"},
      {"smiles": "Cc1ccc(NS(=O)(=O)c2ccc(N3CCN(c4ccc(O)cc4)CC3)c([N+](=O)[O-])c2)c(C)c1", "Potency": "active: 14.1 µM"},
      {"smiles": "O=C(Nc1cccc(Cl)c1)OCCN1CCN(Cc2ccccc2)CCC1=O", "activity change, negative = inhibition": "inactive: -24.5%"},
      {"smiles": "CCOc1ccc(N(CC(=O)Nc2ccccc2F)S(=O)(=O)c2c(C)[nH]c(=O)[nH]c2=O)cc1", "Potency": "active: 3.16 µM"},
      {"smiles": "COC(=O)[C@H]1[C@H]2C[C@H]3c4[nH]c5ccccc5c4CCN3C[C@@H]2CC[C@@H]1O", "Potency": "inactive"},
      {"smiles": "COC(=O)[C@H](C)[C@@H]1C[C@@]1(C)[C@@H](NC(=O)OCc1ccccc1)c1ccccc1", "activity change, negative = inhibition": "inactive: -3.14%"},
      {"smiles": "COc1cc(Cl)ccc1NC(=S)N(CCCN1CCOCC1)Cc1cn(C)c2ccccc12", "Potency": "active: 7.08 µM"},
      {"smiles": "CN(C)CCCN1c2ccccc2Sc2ccccc21", "Potency": "inactive"},
      {"smiles": "Cc1cc(C(C)(C)C)c(O)c(C)c1CC1=NCCN1", "Potency": "inactive"},
      {"smiles": "COc1cc2c(cc1O)CCC1C2CC[C@@]2(C)C1CC[C@@H]2O", "note": "(some centres undefined)", "activity change, negative = inhibition": "inactive: -7.58%"},
      {"smiles": "CC1C(=O)OC2C(O)C34C5CC(C(C)(C)C)C36C(OC(=O)C6O)OC4(C(=O)O5)C12O", "note": "(centres undefined)", "activity change, negative = inhibition": "inactive: -3.94%"},
      {"smiles": "COc1ccc(C[C@H]2CN3C(=NC[C@H]3Cc3ccccc3)N2CCNC(=O)c2ccc(C)c(Br)c2)cc1", "activity change, negative = inhibition": "inactive: -28.8%"}
    ]}
  ]
}
